In the supplement of paper PMC4967469:
IC50 is the fitted dose that halves viability relative to control wells, and lower means more sensitive; a limit (>, <) means that the fit lies beyond the doses tested. AUC, from the same fit, is the share of area under the viability curve across the 256-fold dose range: 1 means no effect, lower means more sensitive. An inferred top dose was calculated from the reported fits.

Each cell line was assayed with CCn1cc(-c2ccnc3[nH]c(-c4cccc(CN(C)C)c4)cc23)c(-c2ccc(NC(=O)N(C)C)cc2)n1 [GSK1070916] (assay: Viability of human cancer cell lines after 72 h of drug (GDSC screen)). Settings: top dose inferred.
Description: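 Human cancer cell lines in 384-well plates, medium with 10% serum, drug for 72 h over a 256-fold dose range (nine 2-fold or five 4-fold steps up to the top dose). Adherent lines were fixed and stained with the nucleic acid dye Syto60, suspension lines read with resazurin; signal relative to control wells, capped at 0 and 100%. One two-parameter sigmoid per drug and line, fitted in a mixed model over all curves with the slope shared within a line.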

Cell Line | AUC | IC50 [µM]
HCC1419 (breast, adherent, top dose 2.56 µM) | 0.968 | > 2.56
Hs939-T (melanoma, adherent, top dose 2.56 µM) | 0.986 | > 2.56
SCC-9 (head and neck, adherent, top dose 2.56 µM) | 0.847 | > 2.56
LS-1034 (large intestine, adherent, top dose 2.56 µM) | 0.849 | 2.23
NCI-H526 (small cell lung carcinoma, suspension, top dose 2.56 µM) | 0.867 | 2.14
MHH-PREB-1 (B-cell leukaemia, suspension, top dose 2.56 µM) | 0.989 | > 2.56
SNU-1040 (large intestine, adherent, top dose 2.56 µM) | 0.713 | 0.8
LCLC-103H (large cell lung carcinoma, adherent, top dose 2.56 µM) | 0.937 | > 2.56
CHSA0011 (chondrosarcoma, adherent, top dose 2.56 µM) | 0.946 | > 2.56
SW1783 (glioma, adherent, top dose 2.56 µM) | 0.986 | > 2.56
KU812 (chronic myeloid leukaemia, suspension, top dose 2.56 µM) | 0.91 | > 2.56
DND-41 (T-cell leukaemia, suspension, top dose 2.56 µM) | 0.67 | 0.447
CP66-MEL (melanoma, adherent, top dose 2.56 µM) | 0.984 | > 2.56
SNU-387 (liver, adherent, top dose 2.56 µM) | 0.943 | > 2.56
TGBC11TKB (stomach, adherent, top dose 2.56 µM) | 0.992 | > 2.56
HCC-15 (lung squamous cell carcinoma, adherent, top dose 2.56 µM) | 0.945 | > 2.56
CAL-78 (chondrosarcoma, adherent, top dose 2.56 µM) | 0.986 | > 2.56
BE-13 (lymphoblastic leukaemia, suspension, top dose 2.56 µM) | 0.198 | 0.0221
PANC-08-13 (pancreas, adherent, top dose 2.56 µM) | 0.935 | > 2.56
WM1552C (melanoma, adherent, top dose 2.56 µM) | 0.908 | > 2.56

Cell Line | AUC | IC50 [µM]
BFTC-909 (kidney, adherent, top dose 2.56 µM) | 0.988 | > 2.56
ESO26 (oesophagus, adherent, top dose 2.56 µM) | 0.89 | > 2.56
MFH-ino (soft tissue, adherent, top dose 2.56 µM) | 0.977 | > 2.56
BxPC-3 (pancreas, adherent, top dose 2.56 µM) | 0.981 | > 2.56
U-118-MG (glioma, adherent, top dose 2.56 µM) | 0.986 | > 2.56
A101D (melanoma, adherent, top dose 2.56 µM) | 0.886 | > 2.56
DMS-114 (small cell lung carcinoma, adherent, top dose 2.56 µM) | 0.931 | > 2.56
SN12C (kidney, adherent, top dose 2.56 µM) | 0.97 | > 2.56
MOLT-13 (T-cell lymphoblastic leukaemia, suspension, top dose 2.56 µM) | 0.194 | 0.0229
EMC-BAC-2 (lung adenocarcinoma, adherent, top dose 2.56 µM) | 0.893 | > 2.56
L-1236 (Hodgkin lymphoma, suspension, top dose 2.56 µM) | 0.992 | > 2.56
NY (osteosarcoma, adherent, top dose 2.56 µM) | 0.989 | > 2.56
SW626 (ovary, adherent, top dose 2.56 µM) | 0.956 | > 2.56
RCC10RGB (kidney, adherent, top dose 10.24 µM) | 0.823 | > 10.2
NCI-H2196 (small cell lung carcinoma, adherent, top dose 2.56 µM) | 0.97 | > 2.56
H2595 (mesothelioma, adherent, top dose 2.56 µM) | 0.922 | > 2.56
SNU-61 (large intestine, adherent, top dose 2.56 µM) | 0.927 | > 2.56
BCPAP (thyroid, adherent, top dose 2.56 µM) | 0.921 | > 2.56
RT4 (bladder, adherent, top dose 2.56 µM) | 0.838 | 1.87
